Results from publication PMC5892938.
Some of the results follow. At the low end of the ranking the order means little.

target: GST-SBP-SLBP (stem-loop binding protein) (UniProt Q14493); assay: targeted RNA Bind-n-Seq; conditions: RBNS binding buffer: 25 mM Tris pH 7.5, 150 mM KCl, 3 mM MgCl2, 0.1% Tween, 0.5 mg/mL BSA, 1 mM DTT; 27 nM protein, 750 pM RNA pool; temperature not stated; high values mean tight binding;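 also: DESeq read counts versus GST-SBP nonspecific binding control pulldown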

Sequence	binding signal (log2 fold change)
GGUCACGUCUCAAUCAACUCUAUGGCAGGAGUUUUCUCCUGGAAUUUCAACAGCUCGCAGUCAAG	-0.0742
GGUCACGUCUCAAUCAACUCUAUCGCAGGAGUUUCCUCCUGGUAUCUCAACAGCUCGCAGUCAAG	0.0241
GGUCACGUCUCAAUCAACUCAAUCGAGGGGGGGAAAACCCCUUUACCCUCACCUUCAACAGCUCGCAGUCAAG	0.499
GGUCACGUCUCAAUCAACUCAAUUUCAGGAGUUUGCUCCUGCAUUCUCAACAGCUCGCAGUCAAG	0.149
GGUCACGUCUCAAUCAACUCUUCCUCCAGGGAAAACCCUGGCAUUCUCAACAGCUCGCAGUCAAG	-0.119
GGUCACGUCUCAAUCAACUCAUCCUCAGGAGUUUACUCCUGCUAAGUCAACAGCUCGCAGUCAAG	0.046
GGUCACGUCUCAAUCAACUCAAUUCCCAGGGAAAGCCCUGGUUAUCUCAACAGCUCGCAGUCAAG	-0.296
GGUCACGUCUCAAUCAACUCCUUAGAGGGGGGGAAAACCCCUUUGCCCUCCAUGUCAACAGCUCGCAGUCAAG	0.158
GGUCACGUCUCAAUCAACUCUACGCCAGGAGUUUCCUCCUGUAUUCUCAACAGCUCGCAGUCAAG	-0.0618
GGUCACGUCUCAAUCAACUCAACUUCCAGGGAAAACCCUGGCAUUCUCAACAGCUCGCAGUCAAG	0.00666
GGUCACGUCUCAAUCAACUCAGUCUCCAGGGAAAACCCUGGUAAAUUCAACAGCUCGCAGUCAAG	0.213
GGUCACGUCUCAAUCAACUCAGUCCCCAGGGAAAGCCCUGGUUUAUUCAACAGCUCGCAGUCAAG	-0.457
GGUCACGUCUCAAUCAACUCAACUCCAGGAGUUUCCUCCUGUUUUUUCAACAGCUCGCAGUCAAG	-0.179
GGUCACGUCUCAAUCAACUCAACUGAGGGGGGGAAAACCCCUUUACCCUCCAAAUCAACAGCUCGCAGUCAAG	0.448
GGUCACGUCUCAAUCAACUCUUCCCCCAGGGAAAUCCCUGGCUUUCUCAACAGCUCGCAGUCAAG	-0.32
GGUCACGUCUCAAUCAACUCAUUCUCAGGAGUUUUCUCCUGUAAUCUCAACAGCUCGCAGUCAAG	-0.026
GGUCACGUCUCAAUCAACUCUUCGGAGGGGGGGAAAACCCCUUUACCCUCACCAUCAACAGCUCGCAGUCAAG	-0.358
GGUCACGUCUCAAUCAACUCAUUCCCCAGGGAAAACCCUGGCAUAUUCAACAGCUCGCAGUCAAG	0.109
GGUCACGUCUCAAUCAACUCCAACGAGGGGGGGAAAACCCCUUUACCCUCCAUUUCAACAGCUCGCAGUCAAG	-0.102
GGUCACGUCUCAAUCAACUCUUUUUCCAGGGAAAGCCCUGGCUUACUCAACAGCUCGCAGUCAAG	-0.189
GGUCACGUCUCAAUCAACUCACACGAGGGGGGGAAAACCCCUUUACCCUCCAAUUCAACAGCUCGCAGUCAAG	-0.129
GGUCACGUCUCAAUCAACUCUCCAGAGGGGGGGAAAACCCCUUUACCCUCCACUUCAACAGCUCGCAGUCAAG	-0.0243
GGUCACGUCUCAAUCAACUCAUCCCCAGGAGUUUUCUCCUGUAAUCUCAACAGCUCGCAGUCAAG	-0.0274
GGUCACGUCUCAAUCAACUCCAUAGAGGGGGGGAAAACCCCUUUACCCUCGAAAUCAACAGCUCGCAGUCAAG	-0.308
GGUCACGUCUCAAUCAACUCAAUUUCCAGGGAAAACCCUGGCUUUCUCAACAGCUCGCAGUCAAG	0.224

Sequence	binding signal (log2 fold change)
GGUCACGUCUCAAUCAACUCAUCAGAGGGGGGGAAAACCCCUUUGCCCUCAAUUUCAACAGCUCGCAGUCAAG	-0.252
GGUCACGUCUCAAUCAACUCUAAAGAGGGGGGGAAAACCCCUUUGCCCUCAUCGUCAACAGCUCGCAGUCAAG	-0.195
GGUCACGUCUCAAUCAACUCAACUUCAGGAGUUUUCUCCUGUUAACUCAACAGCUCGCAGUCAAG	-0.0978
GGUCACGUCUCAAUCAACUCAUGUCCAGGAGUUUCCUCCUGCUUUCUCAACAGCUCGCAGUCAAG	0.207
GGUCACGUCUCAAUCAACUCUUAAGAGGGGGGGAAAACCCCUUUACCCUCAACCUCAACAGCUCGCAGUCAAG	0.132
GGUCACGUCUCAAUCAACUCUCAAGAGGGGGGGAAAACCCCUUUACCCUCCAACUCAACAGCUCGCAGUCAAG	-0.364
GGUCACGUCUCAAUCAACUCUUUAGAGGGGGGGAAAACCCCUUUGCCCUCACACUCAACAGCUCGCAGUCAAG	-0.119
GGUCACGUCUCAAUCAACUCUUCAGAGGGGGGGAAAACCCCUUUGCCCUCAAUUUCAACAGCUCGCAGUCAAG	0.337
GGUCACGUCUCAAUCAACUCAAUCCCCAGGGAAAGCCCUGGCAUUUUCAACAGCUCGCAGUCAAG	-0.0501
GGUCACGUCUCAAUCAACUCUCCCGAGGGGGGGAAAACCCCUUUACCCUCACACUCAACAGCUCGCAGUCAAG	-0.392
GGUCACGUCUCAAUCAACUCCCAAGAGGGGGGGAAAACCCCUUUGCCCUCAUUAUCAACAGCUCGCAGUCAAG	-0.254
GGUCACGUCUCAAUCAACUCAUAAGAGGGGGGGAAAACCCCUUUACCCUCGGAAUCAACAGCUCGCAGUCAAG	-0.0551
GGUCACGUCUCAAUCAACUCAUCAGAGGGGGGGAAAACCCCUUUACCCUCCCAAUCAACAGCUCGCAGUCAAG	0.081
GGUCACGUCUCAAUCAACUCAUUCUCAGGAGUUUUCUCCUGUUUAGUCAACAGCUCGCAGUCAAG	0.103
GGUCACGUCUCAAUCAACUCUACUUCAGGAGUUUACUCCUGCUAAUUCAACAGCUCGCAGUCAAG	0.0554
GGUCACGUCUCAAUCAACUCUUCCCCCAGGGAAAGCCCUGGUUAUCUCAACAGCUCGCAGUCAAG	0.0247
GGUCACGUCUCAAUCAACUCUUCUUCAGGAGUUUACUCCUGUAAAUUCAACAGCUCGCAGUCAAG	0.2
GGUCACGUCUCAAUCAACUCUUUCUCCAGGGAAAGCCCUGGCAUAUUCAACAGCUCGCAGUCAAG	-0.098
GGUCACGUCUCAAUCAACUCUAUUUCAGGAGUUUUCUCCUGCAUUCUCAACAGCUCGCAGUCAAG	0.044
GGUCACGUCUCAAUCAACUCUAUUUCCAGGGAAAACCCUGGCAUAUUCAACAGCUCGCAGUCAAG	0.00607
GGUCACGUCUCAAUCAACUCAACUUCCAGGGAAAACCCUGGCUUUCUCAACAGCUCGCAGUCAAG	0.183
GGUCACGUCUCAAUCAACUCUACUUCAGGAGUUUCCUCCUGUUUUUUCAACAGCUCGCAGUCAAG	-0.139
GGUCACGUCUCAAUCAACUCUAGUCCCAGGGAAAGCCCUGGCAAUCUCAACAGCUCGCAGUCAAG	-0.178
GGUCACGUCUCAAUCAACUCCCUCGAGGGGGGGAAAACCCCUUUACCCUCCAAAUCAACAGCUCGCAGUCAAG	-0.253
GGUCACGUCUCAAUCAACUCAAGUCCAGGAGUUUUCUCCUGUUAUUUCAACAGCUCGCAGUCAAG	-0.091

Sequence	binding signal (log2 fold change)
GGUCACGUCUCAAUCAACUCAACUUCAGGAGUUUUCUCCUGUUUACUCAACAGCUCGCAGUCAAG	0.108
GGUCACGUCUCAAUCAACUCUUCCUCCAGGGAAAACCCUGGUAAUCUCAACAGCUCGCAGUCAAG	-0.0639
GGUCACGUCUCAAUCAACUCAACUCCCAGGGAAAGCCCUGGCUAUCUCAACAGCUCGCAGUCAAG	-0.000122
GGUCACGUCUCAAUCAACUCAAUCCCCAGGGAAAGCCCUGGCAUAUUCAACAGCUCGCAGUCAAG	0.136
GGUCACGUCUCAAUCAACUCAACUCCCAGGGAAACCCCUGGCUAUCUCAACAGCUCGCAGUCAAG	-0.162
GGUCACGUCUCAAUCAACUCUUUCCCCAGGGAAAGCCCUGGCUAUUUCAACAGCUCGCAGUCAAG	0.141
GGUCACGUCUCAAUCAACUCUAUCUCCAGGGAAACCCCUGGCAUAUUCAACAGCUCGCAGUCAAG	0.0351
GGUCACGUCUCAAUCAACUCAUUCCCAGGAGUUUUCUCCUGUUUAGUCAACAGCUCGCAGUCAAG	0.0948
GGUCACGUCUCAAUCAACUCAACUUCCAGGGAAAUCCCUGGUUUUUUCAACAGCUCGCAGUCAAG	0.104
GGUCACGUCUCAAUCAACUCAAUAGAGGGGGGGAAAACCCCUUUGCCCUCACCAUCAACAGCUCGCAGUCAAG	-0.409
GGUCACGUCUCAAUCAACUCUUCGUCAGGAGUUUACUCCUGUUAUCUCAACAGCUCGCAGUCAAG	-0.0854
GGUCACGUCUCAAUCAACUCAUUCUCAGGAGUUUGCUCCUGUAAUCUCAACAGCUCGCAGUCAAG	0.0493
GGUCACGUCUCAAUCAACUCUUCGUCCAGGGAAAUCCCUGGUUUUCUCAACAGCUCGCAGUCAAG	-0.165
GGUCACGUCUCAAUCAACUCAUCUCCCAGGGAAAGCCCUGGUAAUCUCAACAGCUCGCAGUCAAG	0.221
GGUCACGUCUCAAUCAACUCUUUCCCCAGGGAAAACCCUGGUUUACUCAACAGCUCGCAGUCAAG	0.0745
GGUCACGUCUCAAUCAACUCCCUAGAGGGGGGGAAAACCCCUUUGCCCUCGAAAUCAACAGCUCGCAGUCAAG	-0.119
GGUCACGUCUCAAUCAACUCAUUAGAGGGGGGGAAAACCCCUUUACCCUCACCAUCAACAGCUCGCAGUCAAG	-0.207
GGUCACGUCUCAAUCAACUCUCACGAGGGGGGGAAAACCCCUUUACCCUCAAUCUCAACAGCUCGCAGUCAAG	0.132
GGUCACGUCUCAAUCAACUCAUCUUCCAGGGAAAUCCCUGGUAUUUUCAACAGCUCGCAGUCAAG	0.046
GGUCACGUCUCAAUCAACUCUUUUCCAGGAGUUUUCUCCUGUUUUGUCAACAGCUCGCAGUCAAG	-0.0394
GGUCACGUCUCAAUCAACUCUAAAGAGGGGGGGAAAACCCCUUUGCCCUCAUCUUCAACAGCUCGCAGUCAAG	0.146
GGUCACGUCUCAAUCAACUCUUCGCCAGGAGUUUUCUCCUGUUAUUUCAACAGCUCGCAGUCAAG	0.0378
GGUCACGUCUCAAUCAACUCUUCAGAGGGGGGGAAAACCCCUUUGCCCUCCAUUUCAACAGCUCGCAGUCAAG	0.125
